# Experimental data as given in PubChem BioAssay (Tox21).
# This list was built around the results that the source calls inconclusive (neither active nor inactive); the mix of calls is not that of the screen. Potencies of inconclusive entries are doubtful fits and often do not repeat. Some compounds were tested as several samples or in several runs, with calls that do not always agree. Activity calls are given as the source filed them. Unless noted, the call rests on the fitted dose curve; in most records, active means well fitted curve in the direction sought with a large enough effect in the repeat runs; inconclusive means weak or mixed curves; inactive means no such curve, though single readings can be large; an effect the other way counts as inactive or inconclusive.
# Tested on: not listed separately
# Assay: qHTS assay to identify small molecule antagonists of the thyroid receptor (TR) signaling pathway - cell viability counter screen (AID 743064); further: nearly all actives have a fitted effect of over 50% in size; on activity change, negative = cytotoxic: on the % scale 0 is the no-effect control and ±100 the full control effect
# Conditions: GH3.TRE-Luc viability, CellTiter-Fluor, 24 h; activity change, negative = cytotoxic: at 70.3 µM (top of the series) unless noted
# Method in brief: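 Viability of T3-stimulated (1 nM final) GH3.TRE-Luc cells is measured by CellTiter-Fluor fluorescence after 23.5 h compound exposure at 37 °C plus 30 min reagent incubation.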
# Potency means the concentration at half of the fitted maximal effect; tags describe the fitted curve by direction and shape or compound fluorescence and quenching.
SMILES,"activity change, negative = cytotoxic",Potency
CCC(C(N)=O)N1CCCC1=O (stereo not given),inconclusive: 32.1%,–
CCCCN(CCCC)N=O,–,"inconclusive: 0.193 µM [rising, full curve, poor fit]"
c1cc2c3c(cccc3c1)CC2,–,inactive
CCCCCCC#N,–,inactive
CN1[C@@H]2CC[C@H]1CC(OC(=O)c1cc(Cl)cc(Cl)c1)C2 (stereo not given in full),–,inconclusive: 29.8 µM [cytotoxic]
C[N+](C)(C)CC(=O)O,–,inactive
ClCC(Br)CBr (stereo not given),–,inactive
Nc1cc(Cl)cc(Cl)c1,–,"inconclusive: 68.6 µM [rising, single point]"
COc1cc(OC)nc(NC(=O)NS(=O)(=O)c2ncccc2OCC(F)(F)F)n1,–,"inconclusive: 9.2 µM [rising, partial curve]"
S=C=Nc1ccccc1,–,"inconclusive: 1.12 µM [rising, full curve, poor fit]"
O=C(NCc1cccnc1)Nc1ccc([N+](=O)[O-])cc1,–,"inconclusive: 68.6 µM [cytotoxic, single point]"
Nc1nc(N)c(N)c(N)n1,–,"inconclusive: 38.8 µM [rising, partial curve]"
O=[N+]([O-])O,–,"inconclusive: 1.19 µM [rising, single point]"
COc1ccc(C=O)cc1,–,"inconclusive: 67.7 µM [rising, single point]"
Nc1cccc2ccccc12,inconclusive: -33.1% [cytotoxic] [at 95 µM],–
CC(C)(C)C(O)(CCc1ccc(Cl)cc1)Cn1cncn1 (stereo not given),–,inconclusive: 69.4 µM [cytotoxic]
COC1CC(=C(c2cccs2)c2cccs2)C[N+](C)(C)C1 (stereo not given),–,inactive
Cn1sc(Cl)cc1=O,–,"inconclusive: 2.66 µM [rising, full curve, poor fit]"
Nc1ccccc1,–,inactive

SMILES,"activity change, negative = cytotoxic",Potency
COC(=O)/C=C(\C)OP(=O)(OC)OC,–,"inconclusive: 0.969 µM [rising, single point]"
O=C(CCl)c1ccccc1,–,active: 68.6 µM
CC1CN1 (stereo not given),–,inactive
O=C1CCCCC1Cl (stereo not given),–,inactive
CCNCC,–,"inconclusive: 27.3 µM [rising, single point]"
Cn1c(N)nc2c3cccnc3ccc21,–,active: 26 µM
CCOC(=O)C(Cl)C(C)=O (stereo not given),–,inactive
CC(=O)CCc1ccc2c(c1)OCO2,–,inactive
N#C/C=C/C#N,–,active: 64 µM
CCCCN(CCCC)C(=S)S,–,inactive
CCCCOCC1CO1 (stereo not given),–,"inconclusive: 27.5 µM [rising, single point]"
Cc1cc(Cl)ccc1N,–,inactive
C=C(C#N)CCC#N,–,inactive
CCOC(=O)CBr,–,"inconclusive: 68.9 µM [rising, single point]"
O=C(NCO)NCO,–,"inconclusive: 12 µM [rising, full curve, poor fit]"
CC(=O)C(C)(C)C,–,inactive
O=[N+]([O-])c1cccc2ccccc12,–,"inconclusive: 77 µM [cytotoxic, partial curve, poor fit]"
CCCOC(=O)c1ccccc1C(=O)OCCC,–,"inconclusive: 27.7 µM [rising, partial curve, poor fit]"
COc1cc(CCN)cc(OC)c1OC,–,inactive

# Tested on: not listed separately
# Assay: qHTS assay to identify small molecule antagonists of the estrogen receptor alpha (ER-alpha) signaling pathway - cell viability counter screen (AID 743074; calls by dose curve;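 further: HEK293 cells carrying ER-alpha-UAS-bla reporter stimulated with 17beta-estradiol; nearly all actives have a fitted effect of over 45% in size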)
# Conditions: ERalpha-bla HEK293 viability, CellTiter-Glo luminescence, 18 h; series mostly up to 69.4 µM
row,SMILES,Potency
1,c1cc2c3c(cccc3c1)CC2,"inconclusive: 54.9 µM [rising, single point]"
2,O=C(NCc1cccnc1)Nc1ccc([N+](=O)[O-])cc1,inactive
3,O=[N+]([O-])O,"inconclusive: 20.9 µM [cytotoxic, single point]"
4,COc1ccc(C=O)cc1,"inconclusive: 60.8 µM [cytotoxic, single point]"
5,CC(C)(C)C(O)(CCc1ccc(Cl)cc1)Cn1cncn1 (stereo not given),"inconclusive: 62.4 µM [cytotoxic, single point]"
6,Nc1ccccc1,active: 24.5 µM
7,O=C1CCCCC1Cl (stereo not given),"inconclusive: 55.6 µM [rising, single point]"
8,Cc1cc(Cl)ccc1N,"inconclusive: 4.9 µM [cytotoxic, full curve, poor fit]"

# Target: Estrogen receptor (Homo sapiens) (UniProt P03372)
# Assay: qHTS assay to identify small molecule agonists of the estrogen receptor alpha (ER-alpha) signaling pathway (AID 743075; calls by dose curve;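 further: HEK293 GripTite cells with ER-alpha and UAS-driven beta-lactamase reporter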)
# Conditions: HEK293 ER-alpha-UAS-bla, beta-lactamase FRET ratio, 18 h; series mostly up to 70.1 µM
# Sequence of UniProt P03372 (P03372 whole entry, looked up): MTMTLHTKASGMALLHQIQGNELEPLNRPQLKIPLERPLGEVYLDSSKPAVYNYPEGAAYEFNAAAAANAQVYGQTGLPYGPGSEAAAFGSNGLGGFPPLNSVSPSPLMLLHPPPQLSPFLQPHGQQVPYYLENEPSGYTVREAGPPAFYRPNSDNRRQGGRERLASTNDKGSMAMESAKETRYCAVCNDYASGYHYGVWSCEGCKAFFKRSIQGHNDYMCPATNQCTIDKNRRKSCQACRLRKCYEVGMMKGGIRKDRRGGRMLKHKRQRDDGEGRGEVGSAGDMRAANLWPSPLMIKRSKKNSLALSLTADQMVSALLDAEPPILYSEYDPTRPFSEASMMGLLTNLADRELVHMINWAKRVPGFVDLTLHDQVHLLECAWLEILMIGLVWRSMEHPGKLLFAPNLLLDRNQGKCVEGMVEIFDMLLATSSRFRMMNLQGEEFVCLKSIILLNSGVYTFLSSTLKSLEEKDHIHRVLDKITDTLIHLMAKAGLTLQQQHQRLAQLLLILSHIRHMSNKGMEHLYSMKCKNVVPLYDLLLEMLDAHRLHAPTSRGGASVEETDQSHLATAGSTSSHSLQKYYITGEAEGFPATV
row,SMILES,Potency
1,COC(=O)/C=C(\C)OP(=O)(OC)OC,inconclusive: 24.5 µM
2,O=[N+]([O-])c1cccc2ccccc12,"inconclusive: 0.123 µM [falling, full curve]"
3,CCCOC(=O)c1ccccc1C(=O)OCCC,"inconclusive: 55.8 µM [activator, partial curve, poor fit]"

# Target: Estrogen receptor (Homo sapiens) (UniProt P03372)
# Assay: qHTS assay to identify small molecule agonists of the estrogen receptor alpha (ER-alpha) signaling pathway using the BG1 cell line (AID 743079); further: nearly all actives have a fitted effect of over 20% in size; on activation: on the % scale 0 is the no-effect control and ±100 the full control effect
# Conditions: BG1Luc4E2 cells, ERE-luciferase agonist, 22 h; activation: at 70.3 µM (top of the series) unless noted
SMILES,Potency,activation
CCC(C(N)=O)N1CCCC1=O (stereo not given),active: 21.1 µM,–
CCCCN(CCCC)N=O,inactive,–
CN1[C@@H]2CC[C@H]1CC(OC(=O)c1cc(Cl)cc(Cl)c1)C2 (stereo not given in full),inactive,–
ClCC(Br)CBr (stereo not given),inactive,–
COc1cc(OC)nc(NC(=O)NS(=O)(=O)c2ncccc2OCC(F)(F)F)n1,"inconclusive: 14.6 µM [activator, full curve]",–
COC1CC(=C(c2cccs2)c2cccs2)C[N+](C)(C)C1 (stereo not given),"inconclusive: 0.0668 µM [activator, partial curve, poor fit]",–
COC(=O)/C=C(\C)OP(=O)(OC)OC,–,inconclusive: 5% [phenotype inactive]
CC1CN1 (stereo not given),inactive,–
CCCCOCC1CO1 (stereo not given),inactive,–
O=[N+]([O-])c1cccc2ccccc12,–,inconclusive: -9.59% [phenotype inactive]
CCCOC(=O)c1ccccc1C(=O)OCCC,inactive,–
